The values below come from article PMC4336329 (PLoS ONE, 2015).

Molecules are shown by their SMILES. Out of some 310,000 compounds screened, about 2,200 (0.71%) showed an effect of 50% or more. The effect is printed as a negative number. The list shows a part of the results.

The target of the assay is human ether-à-go-go-related gene (hERG) potassium channel (human, UniProt Q12809). Briefly: primary screen, population patch clamp on CHO cells stably expressing hERG.
human ether-à-go-go-related gene (hERG) potassium channel, sequence (Q12809 whole entry, looked up): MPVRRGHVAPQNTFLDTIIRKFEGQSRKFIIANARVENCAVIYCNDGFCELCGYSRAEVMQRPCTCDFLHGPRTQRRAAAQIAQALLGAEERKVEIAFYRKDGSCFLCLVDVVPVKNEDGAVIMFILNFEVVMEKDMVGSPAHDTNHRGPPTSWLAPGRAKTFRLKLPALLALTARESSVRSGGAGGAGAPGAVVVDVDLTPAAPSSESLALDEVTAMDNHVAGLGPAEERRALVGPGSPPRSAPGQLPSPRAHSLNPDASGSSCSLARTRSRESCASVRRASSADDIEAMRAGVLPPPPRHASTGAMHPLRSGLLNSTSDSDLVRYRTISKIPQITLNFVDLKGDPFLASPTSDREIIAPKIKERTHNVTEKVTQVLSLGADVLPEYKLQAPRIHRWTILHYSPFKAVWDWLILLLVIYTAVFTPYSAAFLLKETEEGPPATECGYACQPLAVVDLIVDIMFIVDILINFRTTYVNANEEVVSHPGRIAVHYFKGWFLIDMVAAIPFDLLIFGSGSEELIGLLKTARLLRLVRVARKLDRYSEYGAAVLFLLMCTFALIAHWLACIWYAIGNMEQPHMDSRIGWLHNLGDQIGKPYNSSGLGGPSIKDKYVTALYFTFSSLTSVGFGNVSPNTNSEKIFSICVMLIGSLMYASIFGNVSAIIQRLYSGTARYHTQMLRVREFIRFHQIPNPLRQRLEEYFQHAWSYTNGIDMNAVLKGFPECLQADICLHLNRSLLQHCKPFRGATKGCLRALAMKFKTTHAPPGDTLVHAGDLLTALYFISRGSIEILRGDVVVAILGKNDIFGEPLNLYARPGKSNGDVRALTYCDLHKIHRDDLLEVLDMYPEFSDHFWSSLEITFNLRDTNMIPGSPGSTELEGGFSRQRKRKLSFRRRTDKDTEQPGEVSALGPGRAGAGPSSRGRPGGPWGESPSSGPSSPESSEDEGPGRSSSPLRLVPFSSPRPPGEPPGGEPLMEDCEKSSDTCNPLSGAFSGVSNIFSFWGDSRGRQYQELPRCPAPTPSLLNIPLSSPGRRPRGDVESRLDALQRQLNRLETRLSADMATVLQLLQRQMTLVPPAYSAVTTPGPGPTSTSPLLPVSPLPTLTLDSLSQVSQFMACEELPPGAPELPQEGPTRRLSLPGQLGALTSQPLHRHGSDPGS
Take `CCOc1ccccc1N1CCN(C(=O)c2c(-c3ccccc3Cl)noc2C)CC1`: the “hERG current change (%, negative = inhibition) at 1uM” value worked out at 5.57%.

For `COCCNC(=O)c1onc(CSc2ccncc2)c1C(=O)NCCOC`, the “hERG current change (%, negative = inhibition) at 1uM” value worked out at 22%.

Turning to `CC(=O)NCCNC(=O)[C@H](Cc1ccccc1)NC(=O)c1cccs1`, the “hERG current change (%, negative = inhibition) at 1uM” value is 7.31%.

As to `C=CCOc1ccc(/C=N/N2C(=O)C(CC(=O)Nc3ccc(F)cc3F)SC2=NC)cc1` (stereo not shown), the “hERG current change (%, negative = inhibition) at 1uM” value worked out at 17.4%.

Regarding `COc1cc(/C=N/N2CCN(c3ccccc3)CC2)ccc1OC(C)=O`, the “hERG current change (%, negative = inhibition) at 1uM” value worked out at 6.78%.

In the case of `CCCCCCN=Cc1c(O)n(C)c(=O)n(C)c1=O`, the “hERG current change (%, negative = inhibition) at 1uM” value was found to be 12.7%.

For `Cc1ccc(CN2CCNC(=O)C2CC(=O)NC2CCCCCC2)cc1` (stereo not shown), the “hERG current change (%, negative = inhibition) at 1uM” value turned out to be 7.01%.

For the compound `O=C(c1cc(S(=O)(=O)N2CCOCC2)ccc1F)N1CCN(Cc2ccccc2)CC1`, the “hERG current change (%, negative = inhibition) at 1uM” value was -10.1%.

Turning to `COC(=O)C1=C(C)N=C2SC(C#N)=C(N)N2C1c1cccc(OC)c1` (stereo not shown), the “hERG current change (%, negative = inhibition) at 1uM” value was 5.98%.

Consider `COc1cccc2c1OCC(C(=O)OCc1cccnc1)=C2`, for which the “hERG current change (%, negative = inhibition) at 1uM” value is 10.4%.

On to `CC1=CC(=O)NP(=O)(Oc2ccc3ccccc3c2)N1` (stereo not shown), for which the “hERG current change (%, negative = inhibition) at 1uM” value is on record as 3.53%.

On to `CC1CCN(S(=O)(=O)c2ccc3c(c2)N(CC(=O)NCCCN(Cc2ccccc2)C(C)C)C(=O)CO3)CC1`, for which the “hERG current change (%, negative = inhibition) at 1uM” value stood at 3.08%.

As to `Cc1ccc(CNC(=O)CCS(=O)(=O)c2ccc(Cl)cc2)cc1`, the “hERG current change (%, negative = inhibition) at 1uM” value came out at 3.3%.

Take `Cc1cc(C)cc(NC(=O)CSc2nc(CSc3ccc(Cl)cc3)cc(=O)[nH]2)c1`: the “hERG current change (%, negative = inhibition) at 1uM” value is 5.09%.

For `CC(C)c1ccc(N(CC(=O)NC2CCCC2)C(=O)CCC(=O)Nc2ccccn2)cc1`, the “hERG current change (%, negative = inhibition) at 1uM” value is recorded as 7.06%.

As for `CCNc1cc(N2CCNCC2)ccc1[N+](=O)[O-]`, the “hERG current change (%, negative = inhibition) at 1uM” value is recorded as 8.51%.

Turning to `C=C(C)CN(CC)CCC(=O)Nc1ccc(OC)cc1OC.Cl`, the “hERG current change (%, negative = inhibition) at 1uM” value was found to be 10%.

As to `COc1ccc(S(=O)(=O)N2CCCCCC2)cc1C(=O)Nc1ccc(C)cn1`, the “hERG current change (%, negative = inhibition) at 1uM” value is given as 12.3%.

Take `COc1ccccc1Nc1nc(-c2sc(NC(=O)C(C)(C)C)nc2C)cs1`: the “hERG current change (%, negative = inhibition) at 1uM” value came to 13.7%.

As for `CCOC(=O)c1cc(-c2ccccc2)sc1NC(=O)C(C)OC(=O)c1ccncc1` (stereo not shown), the “hERG current change (%, negative = inhibition) at 1uM” value is recorded as 8.58%.

As to `O=C(COC(=O)c1cc(Cl)ccc1O)NCCNC(=O)COC(=O)c1cc(Cl)ccc1O`, the “hERG current change (%, negative = inhibition) at 1uM” value amounted to 14.6%.

As to `COc1ccccc1C(=O)Nc1ccc(OCC(=O)N2CCCCC2C)cc1` (stereo not shown), the “hERG current change (%, negative = inhibition) at 1uM” value is listed as 6.26%.

For `CCn1c(-c2cccn(Cc3ccc(Cl)cc3Cl)c2=O)n[nH]c1=S`, the “hERG current change (%, negative = inhibition) at 1uM” value amounted to 15.6%.

As for `CN1CCN(Cc2nnc(-c3ccccc3)o2)CC1`, the “hERG current change (%, negative = inhibition) at 1uM” value worked out at 18.2%.

Turning to `CC(=O)NC12CC3CC(C1)CC(C(=O)N1CCN(c4ncccn4)CC1)(C3)C2`, the “hERG current change (%, negative = inhibition) at 1uM” value amounted to 13%.

Consider `CCOC(=O)c1ccc(N2C(=O)CC(NNC(=O)c3ccc(Br)s3)C2=O)cc1` (stereo not shown), for which the “hERG current change (%, negative = inhibition) at 1uM” value is 12.8%.

For `COc1ccc(/C=C(\NC(=O)c2ccco2)C(=O)NCCc2nc3ccccc3[nH]2)cc1`, the “hERG current change (%, negative = inhibition) at 1uM” value is -8.54%.

Consider `O=C(/C=C/c1cccc([N+](=O)[O-])c1)NC(=S)Nc1ccc(CN2CCOCC2)cc1`, for which the “hERG current change (%, negative = inhibition) at 1uM” value amounted to 7.21%.

As for `O=C(Oc1ccc(-c2nc(-c3ccccn3)no2)cc1)c1ccccc1`, the “hERG current change (%, negative = inhibition) at 1uM” value was found to be 8.55%.

In the case of `O=C(CSc1ccc2ccccc2c1)NCc1cccs1`, the “hERG current change (%, negative = inhibition) at 1uM” value is 13.5%.

Turning to `COc1cccc(-c2ccc(SCC(=O)N3CCN(c4ccccc4)CC3)nn2)c1`, the “hERG current change (%, negative = inhibition) at 1uM” value is given as 1.33%.

In the case of `Cc1sc(N2CCN(S(=O)(=O)c3ccc4c(c3)NC(=O)CO4)CC2)nc1-c1ccccc1`, the “hERG current change (%, negative = inhibition) at 1uM” value worked out at 5.53%.

In the case of `COc1ccc(N(CC(=O)N/N=C/c2ccc(N(C)C)cc2)S(=O)(=O)c2ccccc2)cc1`, the “hERG current change (%, negative = inhibition) at 1uM” value is 17.1%.

Turning to `Cc1cc(C)nc(N(C#N)S(=O)(=O)c2ccccc2Cl)n1`, the “hERG current change (%, negative = inhibition) at 1uM” value is 8.84%.

Regarding `CC1c2cc3c(cc2CCN1C(=O)c1ccc(C(F)(F)F)cc1)OCCCO3` (stereo not shown), the “hERG current change (%, negative = inhibition) at 1uM” value is 27.1%.

Consider `O=C(OCCOc1cccc(Cl)c1)c1ccc2ncsc2c1`, for which the “hERG current change (%, negative = inhibition) at 1uM” value worked out at 5.97%.

For `COc1ccc2oc(C(=O)NCCC(C)C)c(C)c2c1`, the “hERG current change (%, negative = inhibition) at 1uM” value was determined as 3.16%.

In the case of `CCOc1ccc(C(C)=O)cc1COC(=O)c1cc([N+](=O)[O-])ccc1N1CCOCC1`, the “hERG current change (%, negative = inhibition) at 1uM” value was 5.92%.

On to `O=C(NNC(=O)c1cnccc1C(F)(F)F)c1ccccc1`, for which the “hERG current change (%, negative = inhibition) at 1uM” value turned out to be 1.87%.

`Cc1nc2ccccc2c(C)c1CC(=O)OC(C)C(=O)NC1(C#N)CCCCC1` (stereo not shown): the “hERG current change (%, negative = inhibition) at 1uM” value is reported as 11.1%.

`Cc1cccc(C(=O)OCC(=O)c2cccc(Br)c2)c1O`: the “hERG current change (%, negative = inhibition) at 1uM” value is reported as 8.86%.

For the compound `COc1ccc(C(C(=O)NC2CCCCC2)N(C(=O)c2sc(C)nc2C)c2ccccc2)cc1` (stereo not shown), the “hERG current change (%, negative = inhibition) at 1uM” value amounted to 11.8%.

Take `Cc1c(NC(=S)Nc2ccccc2)c(=O)n(-c2ccccc2)n1C`: the “hERG current change (%, negative = inhibition) at 1uM” value was 25.5%.

With `CCOc1cccc(/C=N/NS(=O)(=O)c2ccc(C)c([N+](=O)[O-])c2)c1O`, the “hERG current change (%, negative = inhibition) at 1uM” value stood at 21.4%.

Regarding `COc1ccc(C2=NN(C(=O)CCC(=O)O)C(c3ccc(Br)cc3)C2)cc1` (stereo not shown), the “hERG current change (%, negative = inhibition) at 1uM” value is recorded as 25.5%.

Consider `CCOC(=O)C1CCN(C(=O)Nc2ccc(Cl)cc2Cl)CC1`, for which the “hERG current change (%, negative = inhibition) at 1uM” value came to 19.4%.

`COc1ccc(S(=O)(=O)NCc2ccc(C(=O)NCCCN3CC(C)CC(C)C3)cc2)cc1` (stereo not shown): the “hERG current change (%, negative = inhibition) at 1uM” value is 14.1%.

With `CC1CCN(c2nc(-c3ccc(F)cc3)cc(C(F)(F)F)n2)CC1`, the “hERG current change (%, negative = inhibition) at 1uM” value is recorded as 19.8%.

Take `O=C(/C=C/c1ccccn1)c1cc(Cl)cc(Cl)c1O`: the “hERG current change (%, negative = inhibition) at 1uM” value is 13.7%.

As to `O=C(Nc1cccn2ncnc12)C(Cl)Cl`, the “hERG current change (%, negative = inhibition) at 1uM” value is 9.19%.

In the case of `O=C(/C=C/c1ccc(F)cc1)Nc1ccc2[nH]c(=O)[nH]c2c1`, the “hERG current change (%, negative = inhibition) at 1uM” value is given as 9.47%.

On to `O=C(CCN1C(=O)/C(=C/c2cccs2)SC1=S)Nc1ccc(C(=O)O)c(O)c1`, for which the “hERG current change (%, negative = inhibition) at 1uM” value came out at 9.27%.

For `CC(C)Oc1ccc(C(CC(=O)O)NC(=O)Cc2ccccc2)cc1` (stereo not shown), the “hERG current change (%, negative = inhibition) at 1uM” value is 14.7%.

As for `CC(=O)Nc1cccc(N2C(=O)CCC2=O)c1`, the “hERG current change (%, negative = inhibition) at 1uM” value worked out at 14.1%.

`O=C(NCC1CCCO1)c1cccc(N2CCCC2=O)c1` (stereo not shown): the “hERG current change (%, negative = inhibition) at 1uM” value turned out to be 16.9%.
